Test results as given in publication PMC4475061 (2015).

Target: T1, ULK3(MIT)2 (residues 277–449) (human, UniProt Q6PHR2 277-449)
T1 chain: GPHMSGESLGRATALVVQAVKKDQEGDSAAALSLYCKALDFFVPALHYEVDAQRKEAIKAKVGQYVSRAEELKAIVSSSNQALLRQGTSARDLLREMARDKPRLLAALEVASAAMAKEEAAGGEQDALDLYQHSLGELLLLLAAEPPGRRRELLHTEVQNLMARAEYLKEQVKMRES
Assay: FP

Kd: 0.56 µM
B1: IST1 MIM1 peptide ([…]), fluorescently labeled (peptide)
chain: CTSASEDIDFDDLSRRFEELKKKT
modifications: Oregon Green 488 maleimide on the non-native N-terminal cysteine
